This is one part of the list. Most values come without repeats; read them as rough.
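Also: cells treated in 1,536-well plates, then fixed and DAPI-stained, with nuclei counted from automated high-throughput microscope images.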

For this assay, the system named is WM3619. Kind of assay: cell count relative to DMSO control; melanoma cells; higher = more viable cells. The conditions noted are these: library dose: standard library concentration; 72 h.
As to `Cc1cc(N2CCOCC2)cc2[nH]c(-c3c(NC[C@@H](O)c4cccc(Cl)c4)cc[nH]c3=O)nc12` + C/C(O)=C(\C#N)C(=O)Nc1cc(Br)ccc1Br [LFM-A13] (first compound 1 µM, partner dose 10 µM), the cell count amounted to 81.7%. Compound `C=CCNC1=C2C[C@@H](C)C[C@H](OC)[C@H](O)[C@@H](C)/C=C(\C)[C@H](OC(N)=O)[C@@H](OC)/C=C\C=C(/C)C(=O)NC(=CC1=O)C2=O` [Tanespimycin] + C/C(O)=C(\C#N)C(=O)Nc1cc(Br)ccc1Br [LFM-A13] (first compound 0.01 µM, partner dose 10 µM) returned a cell count of 52.7%.

For `Cn1nnc2c(C(N)=O)ncn2c1=O` [temozolomide] + C/C(O)=C(\C#N)C(=O)Nc1cc(Br)ccc1Br [LFM-A13] (first compound 10 µM, partner dose 10 µM), the cell count was 68.7%. Compound `CCc1ccc(CCOc2ccc(CC3SC(=O)NC3=O)cc2)nc1` (stereo not given) [pioglitazone] + C/C(O)=C(\C#N)C(=O)Nc1cc(Br)ccc1Br [LFM-A13] (first compound 10 µM, partner dose 10 µM) yielded a cell count of 70.7%. The compound `COC(=O)c1sccc1S(=O)(=O)Nc1ccc(Nc2ccccc2)cc1OC` + Cc1cc(SCc2sc(-c3ccc(C(F)(F)F)c(F)c3)nc2C)ccc1OCC(=O)O [GW0742] (first compound 5 µM, partner dose 10 µM) registered a cell count of 76.6%. Turning to `COc1ccc(C2=N[C@@H](c3ccc(Cl)cc3)[C@@H](c3ccc(Cl)cc3)N2C(=O)N2CCNC(=O)C2)c(OC(C)C)c1` [Nutlin-3] + Cc1cc(SCc2sc(-c3ccc(C(F)(F)F)c(F)c3)nc2C)ccc1OCC(=O)O [GW0742] (first compound 0.5 µM, partner dose 10 µM), the cell count was found to be 73%. `COc1cc(Nc2ncc(F)c(Nc3ccc4c(n3)NC(=O)C(C)(C)O4)n2)cc(OC)c1OC` [Tamatinib] + Cc1cc(SCc2sc(-c3ccc(C(F)(F)F)c(F)c3)nc2C)ccc1OCC(=O)O [GW0742] (first compound 2 µM, partner dose 10 µM): the cell count worked out at 58.9%.

Take `CC(C)(C)c1cnc(CSc2cnc(NC(=O)C3CCNCC3)s2)o1` + O=C(Oc1ccc([N+](=O)[O-])cc1)N1CCC(C(O)(c2ccc3c(c2)OCO3)c2ccc3c(c2)OCO3)CC1 [JZL184] (first compound 0.05 µM, partner dose 5 µM): the cell count worked out at 56.1%. For `C/C(O)=C(\C#N)C(=O)Nc1cc(Br)ccc1Br` + O=c1cc(-c2cccc3c2Sc2ccccc2S3)oc(N2CCOCC2)c1 [KU55933] (first compound 10 µM, partner dose 5 µM), the cell count amounted to 88.5%. Next, `CN(NC(=O)CC(=O)NN(C)C(=S)c1ccccc1)C(=S)c1ccccc1` + Cc1cc(SCc2sc(-c3ccc(C(F)(F)F)c(F)c3)nc2C)ccc1OCC(=O)O [GW0742] (first compound 0.03 µM, partner dose 10 µM): 9.56%. In turn, `CCCCCCCCCCCCCCCCCCOP(=O)([O-])OC1CC[N+](C)(C)CC1` [Perifosine] + C/C(O)=C(\C#N)C(=O)Nc1cc(Br)ccc1Br [LFM-A13] (first compound 2 µM, partner dose 10 µM) gave a cell count of 94.4%. Turning to `Cc1cc(SCc2sc(-c3ccc(C(F)(F)F)c(F)c3)nc2C)ccc1OCC(=O)O` + Cn1cc(/C=C2\C(=O)Nc3cccnc32)c2ccccc21 [GW441756] (first compound 10 µM, partner dose 2 µM), the cell count was found to be 103%. `Cc1cc(SCc2sc(-c3ccc(C(F)(F)F)c(F)c3)nc2C)ccc1OCC(=O)O` + Oc1nc(-c2ccc(C(F)(F)F)cc2)nc2c1CSCC2 [XAV939] (first compound 10 µM, partner dose 10 µM) yielded a cell count of 80.6%. As for `CC(=O)O[C@@]12CO[C@@H]1C[C@H](O)[C@@]1(C)C(=O)[C@H](O)C3=C(C)[C@@H](OC(=O)[C@H](O)[C@@H](NC(=O)OC(C)(C)C)c4ccccc4)C[C@@](O)([C@@H](OC(=O)c4ccccc4)[C@H]21)C3(C)C` [Docetaxel] + Cc1cc(SCc2sc(-c3ccc(C(F)(F)F)c(F)c3)nc2C)ccc1OCC(=O)O [GW0742] (first compound 0.0005 µM, partner dose 10 µM), the cell count turned out to be 50.6%. `COc1ccc(-c2ccc3c(N4CCOCC4)nc(N4C[C@@H](C)O[C@@H](C)C4)nc3n2)cc1CO` + C/C(O)=C(\C#N)C(=O)Nc1cc(Br)ccc1Br [LFM-A13] (first compound 0.1 µM, partner dose 10 µM) returned a cell count of 72.7%.

(Values after the supplement of paper PMC4604168 (melanoma cell lines).)
